# Test results: publication PMC12040169 (PLOS Biology, 2025)
# The list shows a part of the results.
# System: T1, C. trachomatis L2/434/Bu expressing GFP (CTL2-GFP)
# T1 construct: L2/434/Bu GFP intracellular growth in HeLa cells
# Design: species or system HeLa; C. trachomatis total inclusion area by high-content imaging, normalised to DMSO
# Conditions: total inclusion area; 28.5 h, 10 µM; inhibitor
# Method in brief: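 Host cell viability was gauged from Hoechst-stained nuclei counts, while chlamydial growth was taken from total inclusion area and inclusion number per well. Cells were fixed and imaged by high-content microscopy once bulk GFP and resorufin fluorescence had been measured.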
row,Structure (SMILES),% of control remaining
1,Cc1c(/C=C2\SC(=S)NC2=O)c2ccccc2n1Cc1ccccc1Cl [CBK263946],99.0224
2,O=C1N[C@H]2CCCN(C(=O)CCN3CCCC3)[C@H]2C/C=C/CCOc2ccccc21 [CBK292162],80.8708
3,COc1ccc(CNc2oc(-c3ccccc3)nc2S(=O)(=O)c2ccccc2)cc1 [CBK267669],78.9586
4,Cc1cc2c(cc3c(=O)n(CC(=O)NC4CCCC4)nc(C)n32)s1 [CBK284072],96.662
5,CN(CC1OCCc2ccccc21)C(=O)CCC1CCCO1 (centres unmarked) [CBK282030],103.999
6,Cc1noc(C)c1S(=O)(=O)Nc1nc(-c2cccnc2)cs1 [CBK067266],102.61
7,O=C1Nc2ccc(S(=O)(=O)NCCCO)c3cccc1c23 [CBK262033],101.556
8,O=C(Nc1snnc1-c1ccc(Cl)cc1)c1ccco1 [CBK153242],85.0095
9,COc1cccc(CNC(=O)c2cn[nH]c2-c2cccc(C)c2)c1 [CBK288056],89.3221
10,Cc1nc(N2CCOCC2)[nH]c(=O)c1CCC(=O)Nc1ccccc1F [CBK305003],109.482
11,CN1CCN(CC(=O)Nc2ccc([N+](=O)[O-])cc2C(=O)c2ccccc2)CC1 [CBK265772],117.618
12,O=C(O)CCC(=O)NCCCc1ccccc1 [CBK265465],58.788
13,Cc1ccccc1C(=O)N1CCN(S(=O)(=O)c2sc(C(=O)O)c(C)c2C(=O)O)CC1 [CBK297146],102.14
14,Nc1nc2cccnc2cc1-c1ccsc1 [CBK081214],117.677
15,CC(C)(Oc1ccc(Cl)cc1)C(=O)Nc1ccc(CN2CCOCC2)cc1 [CBK269940],95.2176
16,O=C(Cn1nc(-c2ccco2)ccc1=O)Nc1ccccn1 [CBK287985],124.82
17,O=C(CCN1C(=O)C2C3CCC(C3)C2C1=O)OCC(=O)c1ccc(Cl)c([N+](=O)[O-])c1 (centres unmarked) [CBK264124],102.548
18,COc1ccc(OC)c(CCO)c1 [CBK003033],95.4366
19,O=C1CC(N2CCN(CCc3ccncc3)CC2)C(=O)N1c1ccc(Cl)cc1 (centres unmarked) [CBK270078],85.4067
20,CN1CCN(C(=O)c2ccc(-c3cnc4[nH]c(=O)n(CCN5CCOCC5)c4n3)cc2)CC1 [CBK064800],102.599
21,COc1ncc(-c2ccc(Nc3ccc(N4CCOCC4)cc3)nc2)c(OC)n1 [CBK036988],132.054
22,O=C(Cn1cnnn1)NC1CCCC1 [CBK200372],84.6892
23,Cc1ccc(NC(=O)CN2C(=O)N/C(=C\c3cc(Br)cc(Cl)c3O)C2=O)cc1 [CBK265018],117.445
24,CC(C)[C@H](CO)NC(=O)c1cnc(-c2ccccc2)c(-c2ccncc2)c1 [CBK036691],111.011
25,O=[N+]([O-])c1ccc(CN2CCN(Cc3cccnc3)CC2)cc1 [CBK263161],95.4637

row,Structure (SMILES),% of control remaining
1,CSc1nc(N)nc2sc3c(O)cc(=O)[nH]c3c12 [CBK267457],114.479
2,CCC(CCC(=O)Nc1ccccc1Cl)C(=O)O (centres unmarked) [CBK286767],133.166
3,Nc1ccc(Sc2nccnc2N2CCCC2)cc1 [CBK089520],105.566
4,COc1ccc(OC)c(NC(=O)c2c[nH]c(=O)n(-c3ccc(F)cc3)c2=O)c1 [CBK287552],85.4247
5,Cc1ccc(C(=O)c2cccc(N3C(=O)c4ccc(C(=O)O)cc4C3=O)c2)cc1C [CBK286994],87.1575
6,O=C(NCc1nnc(-c2cccs2)o1)c1cccc(-c2ccc(F)cc2)c1 [CBK286296],100.192
7,Cc1sc(NC(=O)C2C3C=CC(C3)C2C(=O)O)c(C(N)=O)c1C (centres unmarked) [CBK263685],111.833
8,CC1(C(=O)NC(c2ccncc2)c2ccc(Cl)cc2)CCCO1 (centres unmarked) [CBK282710],139.368
9,COc1cc(Nc2nc(-c3cccc4ccccc34)cn3ccnc23)cc(OC)c1OC [CBK036608],63.869
10,Cc1cc(C[C@@H]2CCC[C@H]2NCc2cccnc2)on1 [CBK284933],78.9987
11,COC(=O)[C@H]1CN(C(=O)c2ccccn2)C[C@@H]1c1ccc(F)cc1 [CBK283727],59.2907
12,CC(C)NC(=O)Cn1c(-c2ccc(F)cc2)cc2cccnc21 [CBK284862],101.478
13,CCOc1ccc(C(C)(N)C(=O)O)cc1 (centres unmarked) [CBK261362],88.735
14,COc1ccc2nc(NC(=O)c3cccc(N4C(=O)CCC4=O)c3)sc2c1 [CBK287351],112.352
15,Cc1nc(-c2ccccc2)ccc1C(=O)Nc1nc(CC(N)=O)cs1 [CBK295195],93.5447
16,O=C(O)CCC(=O)Nc1ccc2c(c1)Cc1ccccc1-2 [CBK286611],106.701
17,O=C(COc1ccc(-c2cc(-c3ccccc3)c3cc(Cl)ccc3n2)cc1)N/N=C/c1ccc2ncccc2c1 [CBK263365],100.727
18,O=C(Nc1ccc2c(c1)OCO2)c1ccc(-c2ccccc2)nc1NCCc1ccccn1 [CBK076574],91.5424
19,COc1ccc(-c2c[nH]c([C@@H]3COCCN3Cc3ccccc3O)n2)cc1 [CBK289296],96.4983
20,CC(C)NC(=O)c1sc2ccccc2c1C1CCN(S(=O)(=O)c2ccccc2)C1 (centres unmarked) [CBK285927],92.2249
21,CC(C)(C)C1=CC2=NC3(CCCCCC3)[C@@H]3C[C@@H](O)[C@@H](O)[C@@H]3N2O1 [CBK303252],66.8253
22,O=C1c2ccccc2C(=O)N1CCCSc1nnc(-c2ccncc2)n1-c1ccccc1 [CBK263419],85.7672
23,O=C(/C=C/c1ccc(-c2ccccc2[N+](=O)[O-])o1)Nc1ccc(-c2nc3ncccc3o2)cc1 [CBK263434],81.4529
24,C=CCNCc1cc2c(C)nn(-c3ccccc3)c2[nH]c1=O [CBK282898],97.6781
25,Nc1ncnc2c1nc(N)n2[C@H]1C[C@@H](O)[C@@H](CO)O1 [CBK201222],77.4939
